We go through 1 molecule from PubChem BioAssay AID248 (DTP/NCI, 2004).

Inconclusive results and toxic doses are left out. Not every entry of the source has a single result; some have several. The list is limited to them. An entry can have further records. Values given together differ, and nothing given here explains why; some may be repeats, others may stem from another dose, organism or construct than stated.

For this assay, the system named is L1210 leukemia ip in BDF1 mice, survival T/C. The assay is described as follows: NCI In Vivo Anticancer Drug Screen. Data for tumor model L1210 Leukemia (intraperitoneal) in B6D2F1 (BDF1) mice. The settings on record: endpoint: mean survival time; dose: 20.0 mg/kg/injection; schedule: Q01DX001 (ip); vehicle: saline; higher = longer survival.

On to `CS(=O)(=O)OCCN(CCOS(C)(=O)=O)c1cccc(F)c1`, for which the T/C was 98 % of control, 106 % of control, 151 % of control.
